Here are results for 14 substances from publication PMC3737525, “Structural and mechanistic basis of anti-termination of Rho-dependent transcription termination by bacteriophage P4 capsid protein Psu” (Nucleic Acids Research, 2013).

The chains behind the UniProt entries cited, without tags or fusion partners. Where a name states a change or a piece, a line headed by the entry shows the natural chain unless it says otherwise.
UniProt P0AG30: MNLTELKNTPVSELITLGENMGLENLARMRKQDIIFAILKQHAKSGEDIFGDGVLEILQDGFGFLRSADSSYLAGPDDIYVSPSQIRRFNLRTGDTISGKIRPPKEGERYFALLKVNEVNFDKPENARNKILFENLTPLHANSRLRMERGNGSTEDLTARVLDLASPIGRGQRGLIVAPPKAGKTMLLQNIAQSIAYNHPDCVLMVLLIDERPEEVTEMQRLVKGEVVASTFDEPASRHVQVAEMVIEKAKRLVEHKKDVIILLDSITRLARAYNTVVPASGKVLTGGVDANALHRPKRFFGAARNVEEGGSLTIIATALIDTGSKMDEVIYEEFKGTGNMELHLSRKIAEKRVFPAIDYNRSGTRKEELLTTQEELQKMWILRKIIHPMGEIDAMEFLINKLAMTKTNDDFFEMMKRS

The target of assay [1] is WT Psu, His-tagged at the N-terminus (bacteriophage P4) (UniProt P05460). Briefly: pull-down; in vivo pull-down: N-terminally His-tagged Psu and untagged Rho co-overexpressed in BL21 (DE3); lysate (100 mM NaH2PO4, 100 mM NaCl, 10 mM imidazole) passed through Ni-NTA, washed with 20 mM imidazole, eluted with 500 mM imidazole; fractions on SDS-PAGE.
For assay [2], the target named is T1, F169V Psu, His-tagged at the N-terminus (bacteriophage P4) (UniProt P05460).
T1 sequence: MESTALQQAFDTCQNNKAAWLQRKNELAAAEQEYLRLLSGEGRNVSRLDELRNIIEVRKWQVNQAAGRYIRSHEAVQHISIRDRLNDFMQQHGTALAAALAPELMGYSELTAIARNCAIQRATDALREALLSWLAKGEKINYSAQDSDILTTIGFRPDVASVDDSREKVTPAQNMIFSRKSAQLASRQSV
The assay is described as above.

Assay [3] addresses T2, E56K Psu, His-tagged at the N-terminus (bacteriophage P4) (UniProt P05460).
T2 sequence: T1 sequence with E56K, V169F
The assay is described as above.

Assay [4] addresses T3, R166C Psu, His-tagged at the N-terminus (bacteriophage P4) (UniProt P05460).
T3 sequence: T1 sequence with R166C, V169F
Described as above.

The target in assay [5] is Psu single cysteine derivative S80C (bacteriophage P4) (UniProt P05460). Briefly: pull-down; pull-down assays of the single Cys derivatives (Supplementary Figure S3A and B); format not shown.
For assay [6], the target named is T4, Psu single cysteine derivative S181C (bacteriophage P4) (UniProt P05460).
T4 sequence: T1 sequence with C13S, C117S, V169F, S181C
The description is as above.

Assay [7] concerns the target T5, Psu single cysteine derivative S161C (bacteriophage P4) (UniProt P05460).
T5 sequence: T1 sequence with C13S, C117S, S161C, V169F
Described as above.

The target in assay [8] is WT Psu, His-tagged at the N-terminus (bacteriophage P4) (UniProt P05460). The assay is described as above.

Changes are numbered by the printed parent chain. These are yes or no findings as the source states them, for the method shown. Binding seen in cells or lysates may run through a third protein. Some binding calls cover weakened binding; strength is not graded here. For part of these data: Sequences can lack the tags named with a protein.

Take E148R Rho (from UniProt P0AG30 1-419): the binding entry in assay [1] is reported as “no binding”.

For the substance K352A Rho (from UniProt P0AG30 1-419), in assay [1], the binding entry is “binds”. As to N151D Rho (from UniProt P0AG30 1-419), the binding entry in assay [2] is on record as “binds”; in assay [3] it was “no binding”; in assay [4] it was “binds”; in assay [1], “binds”. Consider P167L Rho (from UniProt P0AG30 1-419), for which the binding result in assay [5] is “binds”; in assay [6] it was “binds”; in assay [7], “binds”; in assay [8], “binds”; in assay [2], “binds”; in assay [3], “no binding”. Moreover, the binding result in assay [4] and in assay [1] was “binds” each time. As to R144E Rho (from UniProt P0AG30 1-419), the binding result in assay [1] is “no binding”.

Turning to R146E Rho (from UniProt P0AG30 1-419), the binding result in assay [1] was “no binding”. Regarding R149E Rho (from UniProt P0AG30 1-419), the binding entry in assay [1] is listed as “binds”. Regarding “Single Cys derivative L204C of P167L Rho (from UniProt P0AG30 1-419)”, the binding result in assay [8] is “binds”. Still for that read-out and setting: for “Single Cys derivative S153C of P167L Rho (from UniProt P0AG30 1-419)” the value was “binds”; for “Single Cys derivative S346C of P167L Rho (from UniProt P0AG30 1-419)”, “binds”. Regarding V354N Rho (from UniProt P0AG30 1-419), the binding result in assay [1] was “binds”. Consider WT Rho (from UniProt P0AG30 1-419), for which the binding result is listed as “no binding” in assay [2], “no binding” in assay [3], “no binding” in assay [4] and “binds” in assay [1]. As for “Δ(144–148) Rho (from UniProt P0AG30 1-419)”, the binding result in assay [1] is on record as “binds”.

Turning to “Δ(149–153) Rho (from UniProt P0AG30 1-419)”, the binding entry in assay [1] was “binds”.
